# From PubChem BioAssay AID485344 (National Center for Advancing Translational Sciences (NCATS), 2010)
# The campaign covered roughly 340,000 compounds. About 6,900 (2%) were called active. Rule as the data show it: active = inhibition above about 30%; inactive = below that, where a call was filed. Only a part is listed here, and it is no random draw. The source gives no active or inactive call for entries shown without one.
# Target: D(2) dopamine receptor (Homo sapiens) (UniProt P14416)
# Assay: HTS Assay for Allosteric Antagonists of the Human D2 Dopamine Receptor: Primary Screen for Antagonists; also: 0% is about no effect
# Settings: HEK293 TREx D2 cells, calcium flux, dopamine EC80; at 10 µM; stronger effect = higher value
# Procedure, shortened: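 Tetracycline-induced HEK293 T-REx cells expressing D2 force-coupled to calcium signalling were dye-loaded, exposed to compound for 180 s, then challenged with an EC80 of dopamine; calcium flux was followed kinetically for a further 180 s.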
# Sequence of UniProt P14416 (P14416 whole entry, looked up): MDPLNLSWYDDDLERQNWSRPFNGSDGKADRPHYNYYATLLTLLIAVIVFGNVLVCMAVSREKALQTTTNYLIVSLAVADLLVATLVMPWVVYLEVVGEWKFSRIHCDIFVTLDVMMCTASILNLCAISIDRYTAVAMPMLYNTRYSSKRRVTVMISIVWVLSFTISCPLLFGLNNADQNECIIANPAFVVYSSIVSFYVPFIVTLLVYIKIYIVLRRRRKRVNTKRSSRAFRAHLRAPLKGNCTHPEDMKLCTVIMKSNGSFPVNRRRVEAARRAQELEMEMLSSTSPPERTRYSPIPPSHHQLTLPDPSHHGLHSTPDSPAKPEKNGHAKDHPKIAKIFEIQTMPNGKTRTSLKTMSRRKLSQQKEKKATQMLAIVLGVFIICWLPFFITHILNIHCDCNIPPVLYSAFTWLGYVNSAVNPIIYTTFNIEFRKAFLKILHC
row,Structure (SMILES),inhibition
1,Cc1ccccc1NC(=O)CCc1c(C)nc2c(c1C)c(=O)n(C)c(=O)n2C,-7.13%
2,CCCN(C(=O)Cn1cnc2sc(C)c(S(=O)(=O)N3CCN(c4ncccn4)CC3)c2c1=O)c1cccc(C)c1,-6.4%
3,COc1ccc(Cc2nnc(NC(=O)c3cc(OC)c(OC)c(OC)c3)s2)cc1OC,active: 34.9%
4,CCOC(=O)c1ccc(NC(=O)c2nsc3ccccc23)cc1,-11.6%
5,CN1CCc2nc3sc(C(=O)Nc4c(F)cccc4F)c(N)c3cc2C1,3.15%
6,C/C=C(\C)CN1CCN(c2ccccc2)CC1,active: 74.8%
7,Cc1ccc(-c2cnc(NCc3c(F)cccc3Cl)n2C)cc1,12.3%
8,CCOc1ccc(NC(=O)Cn2c(=O)c(CNc3ccc(OC)cc3)cc3ccc(OC)cc32)cc1,2.31%
9,CCOC(=O)c1cc(S(=O)(=O)N2CCN(c3cc(Cl)ccc3C)CC2)[nH]n1,16.5%
10,Cc1oc(-c2ccccc2Cl)nc1CS(=O)(=O)CC(=O)NC(C)CCc1ccccc1 (stereo unspecified),-1.34%
11,CC(Sc1nnnn1C1CC1)C(=O)N1CC(=O)Nc2ccccc21 (stereo unspecified),active: 47%
12,COc1ccc(C(=O)Nc2nc3nc(C)c(Cl)c(=O)n3[nH]2)cc1,10.1%
13,COc1ccccc1N1CCN(Cc2cc(OC)c3c(c2)OCO3)CC1,active: 85.7%
14,Cc1ccc2nc(Cl)c3cc(C(=O)NC4CCCCC4)sc3c2c1,17.6%
15,COc1ccc(NC(=O)CC2C(=O)N(c3cccc(OC)c3)C(=O)N2Cc2cccnc2)cc1 (stereo unspecified),3.3%
16,Cc1ccc(-n2c(CNc3ccc(F)cc3)nnc2SCC(=O)NCc2ccco2)cc1,active: 33.9%
17,COc1ccc(OC)c(NC(=O)C(NS(=O)(=O)c2ccc3c(c2)CCCC(=O)N3)C(C)C)c1 (stereo unspecified),5.36%
18,Cc1ccc(-n2nc3c(N4CCC(C(=O)N(C)Cc5ccccc5)CC4)nnc(C)c3c2C)cc1,-1.4%
19,Cc1ccc(C)c(S(=O)(=O)n2nc(C)c(S(=O)(=O)N3CCC(C)CC3)c2C)c1,-0.0268%
20,CC(=O)Nc1ccc(S(=O)(=O)Nc2nc3n(n2)C(c2ccccc2)C=C(c2ccc(Cl)cc2)N3)cc1 (stereo unspecified),10.2%
21,O=C(NCCN1CCCCC1)c1ccc(Cn2c(SCc3ccc(F)cc3)nc3cccnc32)cc1,21.1%
22,CN(C)c1ccc(CN(Cc2ccco2)C(=O)c2ccc(F)cc2)cc1,-1.72%
23,O=C(NCc1ccc2c(c1)OCO2)C1CCC(CNS(=O)(=O)c2cccc3nsnc23)CC1 (stereo unspecified),active: 35%
24,COc1ccccc1CNC(=O)CCC(=O)N1Cc2ccccc2Oc2ncccc21,5.29%
25,CC(=O)Nc1cccc(NC(=O)Cc2csc(COc3cccc(C)c3)n2)c1,1.39%
26,COc1ccccc1N1CCN(S(=O)(=O)c2ccc(-n3cnnn3)cc2)CC1,-14.4%
